Laboratory results reported in ChEMBL document CHEMBL4888484, “Replenishing the malaria drug discovery pipeline: Screening and hit evaluation of the MMV Hit Generation Library 1 (HGL1) against asexual blood stage Plasmodium falciparum ,using a nano luciferase reporter read-out” (2022).
The whole screen tested about 150,000 compounds, of which about 540 (0.36%) showed an effect of 50% or more. The list shows a part of the results.

System: Plasmodium falciparum
Assay: Primary screen in NF54 nanoGlo assay, in single point, at 2uM, 72h; a lower Z score goes with more inhibition
Type: functional, Erythrocyte
Conditions: timepoint 72 hour

| Structure (SMILES) | % Inhibition [%] | Z score |
| --- | --- | --- |
| CO[C@H]1[C@H](NC(=O)c2ccccn2)c2ccccc2C12CCN(C(=O)[C@@H](O)c1ccccc1)CC2 | 8 | -1.17 |
| COc1cc(Br)cc(C)c1NC(=O)N[C@H]1CCCOC1 | 2 | -0.27 |
| Cc1ccc(CNC(=O)N2C[C@@H](Oc3ccccc3)C[C@@H]2C(=O)N2CCOCC2)cc1 | -10 | 1.96 |
| CC(=O)N1CCN(C(=O)CN2CC(C)CC2c2ccccc2F)CC1 (configuration not stated) | -12 | 1.13 |
| CCN(CC)c1cc(CCC(=O)N2CCCC2)ccn1 | -11 | 1.13 |
| Cc1ccc2c(c1)C(=O)N(CCC(=O)N(C)C1CCCC1)C2=O | -1 | 0.13 |
| COCCOCCN[C@H]1CCCc2c(Cl)sc(Cl)c21 | -10 | 1.03 |
| O=C1C[C@@H](C(=O)Nc2ccccc2Nc2ccc(F)cc2F)CCN1 | -8 | 0.91 |
| COc1cc(-c2nc3ccccc3s2)cc(Cl)c1OCC(=O)c1ccccc1 | -6 | 0.97 |
| Cc1[nH]c(=O)[nH]c(=O)c1CC(=O)N1CCNC(=O)[C@@H]1c1cccc(F)c1 | 11 | -1.47 |
| CC(C)CCOc1ccccc1CNC(=O)[C@@H]1CNC(=O)N1 | -18 | 1.48 |
| O=C(NCC(=O)N1CC[C@H]2[C@H](C1)OCc1cnnn12)c1ccccc1 | -8 | 0.82 |
| O=C(NCc1cccnc1Oc1ccc(F)cc1F)[C@H]1CCCN1 | -6 | 0.76 |
| COc1ncccc1CN1C(=O)COc2cccnc21 | 10 | -2.02 |
| O=C(CN1C(=O)CCn2nc(-c3cccc(Cl)c3)cc21)NCCN1CCCCC1 | 8 | -1 |
| c1coc([C@H](CNc2cncc3nnnn23)N2CCCC2)c1 | -21 | 2.14 |
| CN(C)C(=O)C1CCC(CNC(=O)c2n[nH]c3c2CCCCC3)O1 (configuration not stated) | -9 | 1.38 |
| COCCOCc1nc([C@@H]2CCCN2S(=O)(=O)c2cc(F)ccc2F)no1 | -5 | 0.62 |
| CN(c1cccc(C#N)c1)C1CCN(C(=O)C2CCS(=O)(=O)C2)C1 (configuration not stated) | -1 | 0.17 |
| CN1C[C@@H](CNc2nc3cccc(F)c3s2)CC1=O | -3 | 0.28 |
| NC(=O)CC(=O)Nc1ncc(-c2ccccc2F)s1 | 4 | -0.56 |
| CCOC(=O)C1(CNc2nc(C)c(S(N)(=O)=O)s2)CCCC1 | 0 | 0 |
| O=C(Nc1ncc(Cc2ccc(F)cc2F)s1)c1cnc[nH]1 | -4 | 0.69 |
| CCc1nnc(CNc2cc(C)c(C)c3ncccc23)s1 | 5 | -0.98 |
| COc1ccc2cc1Oc1cccc(c1)CO[C@H]1CCN(C(=O)CCc3ccccc3)C[C@@H]1NC(=O)CN(CCCO)C2=O | -12 | 1.48 |
| CC1(C)CC(CN2CCn3c(n[nH]c3=O)C2)C1 | -15 | 1.5 |
| CN(CC(F)(F)F)C(=O)c1ccoc1 | -13 | 1.84 |

| Structure (SMILES) | % Inhibition [%] | Z score |
| --- | --- | --- |
| Cc1c(-c2cccc(CN3CCCS3(=O)=O)c2)cnc2[nH]ccc12 | 30 | -3.36 |
| O=S(=O)(c1cccc2nonc12)N1CCc2[nH]c3ccc(F)cc3c2C1 | 3 | -0.42 |
| Cc1[nH]c([C@H]2CC(=O)N(C3CCCC3)C2)nc1-c1ccc(F)cc1F | 0 | -0.02 |
| O=C(NC(CC(F)(F)F)c1ccc(Cl)cc1)C1CCOC1 (configuration not stated) | -8 | 1.47 |
| CC(C)CCNS(=O)(=O)c1ccc(NS(=O)(=O)N(C)C)cc1 | -3 | 0.3 |
| O=C(Cn1ccc2ccccc21)N1C[C@H]2CC[C@@H](C1)N(CC1CC1)C2 | -3 | 0.53 |
| Cc1nc(N)nc(N2CCOCC2)c1CCOc1ccccc1 | 3 | -0.34 |
| Cc1cccc(NS(=O)(=O)c2cc3n(c2)CCCNC3=O)c1 | -14 | 1.58 |
| Cc1ccc(-c2nnc(N3CCC(C(=O)NCC4CCCCC4)CC3)o2)cc1 | -6 | 0.89 |
| COc1cc(CN2C(=O)CC[C@@H]3CN(Cc4ccccc4)CC[C@@H]32)cc(OC)c1OC | 8 | -1.04 |
| Cc1nn(C)c(-n2cccn2)c1C(=O)NCc1ccccc1Cl | – | 2.22 |
| Cc1nn(C)c2nc(-c3cccnc3)nc(N(C)CCc3cn[nH]c3)c12 | 7 | -1.38 |
| c1ccc(-c2cn3c(n2)CO[C@@H](CNC2CCCC2)C3)cc1 | 17 | -1.94 |
| O=C([C@H]1CCCN(S(=O)(=O)N2CCCC2)C1)N1CCCn2nc(-c3ccc(F)cc3)cc2C1 | -2 | 0.34 |
| c1ccc2c(c1)CC(Cc1nc([C@H]3CCOC3)n[nH]1)C2 | -7 | 0.97 |
| CCn1cc(CNC(=O)[C@@H](C)Cn2cncn2)c(C)n1 | -5 | 0.88 |
| Brc1cccc(-c2nnc(-c3n[nH]cc3NCc3ccc4c(c3)OCO4)[nH]2)c1 | 2 | -0.29 |
| O[C@]12CCCC[C@H]1CN(c1nc(C3CC3)nc3c1CCNCC3)CC2 | -6 | 1.1 |
| COc1ccc(CN2CC[C@H]2C(=O)NCCc2ccccn2)cc1 | -17 | 2.28 |
| CN(C)c1ccnc(CNS(=O)(=O)c2cccs2)n1 | -7 | 1.1 |
| Cc1ccc(NC(=O)C(=O)N(C)C(C)C)cc1OC(F)F | -10 | 1.05 |
| Cc1cccc(CNC(=O)c2csc3cncn23)c1 | 0 | 0.07 |
| CC(C)CN(Cc1cc(NC(=O)N(C)C)ccc1N(C)C)C(=O)c1ccco1 | -13 | 1.4 |
| CNC(=O)c1cc(Oc2cccc(N[C@@H](C)C3CC(F)(F)C3)c2)ccn1 | -8 | 1.25 |
| Cc1cnc(CN2C[C@]3(CCCN(C(=O)c4nccn4C)C3)CCC2=O)cn1 | -12 | 1.55 |
| CCOc1cc(Cl)ccc1NC(=O)NCc1ccnn1C | 28 | -3.17 |
| CCCN(Cc1cc(NC(=O)NC(C)C)ccc1N(C)C)C(=O)C(C)C | -14 | 1.33 |
